Measured values: ChEMBL document CHEMBL1201862, “PubChem BioAssay data set” (2004)
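Each compound was tested at five concentrations against cells in 96-well plates for 48 hours. Abbreviation: GI50, concentration required for 50% inhibition of growth.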 The source made the active and inactive calls. Cut-off read from the data, not from the text of the source: active = GI50 up to about 1.1 µM and inactive = higher.

test system: NCI-H322M; assay: inhibition of tumour cell growth, NCI panel, 48 h

Row | SMILES | GI50
1 | O=C(CCN1CCCCC1)Nc1ccc2c(c1)C(=O)c1ccc(NC(=O)CCN3CCCCC3)cc1C2=O | inactive: 5 µM
2 | CC1=NN(C(=O)c2ccc(Cl)cc2)C(=O)/C1=C/c1cccc(O)c1 | inactive: > 100 µM
3 | O=C1C(O)=C(Cc2ccccc2)C(=O)c2ccccc21 | inactive: 43.8 µM
4 | Clc1ccc(CN2CCCN(Cc3ccc(Cl)cc3)C2c2cc3ccccc3c3ccccc23)cc1 | inactive: 66.8 µM
5 | COc1c(NC(C)=O)c2ccccc2c2ccccc12 | inactive: > 100 µM
6 | COc1cc2ccc(C(=O)NCCCNC(=O)c3ccc4cc(OC)c(OC)cc4c3)cc2cc1OC | inactive: > 100 µM
7 | Cc1c2c(OCC3CCCCO3)nn(C)c(=O)c2c(C)n1-c1ccccc1 (configuration not stated) | inactive: 18.1 µM
8 | CC(C)[Si]1(C(C)C)OCC2OC(n3c(C(=O)c4ccccc4)cc(=O)[nH]c3=O)CC2O[Si](C(C)C)(C(C)C)O1 (configuration not stated) | inactive: 7.91 µM
9 | COc1ccc(O)c2c1C(=O)CCCC2=O | inactive: > 100 µM
10 | CCOC(=O)/C=C(/C(=O)OCC)n1cc(C)c(=O)n(Cc2cn(COCCOC(C)=O)nn2)c1=O | inactive: > 100 µM
11 | C[C@H](OCc1ccccc1)C(=O)N1CCS(=O)(=O)N2CCC[C@H]2C1=O | inactive: > 100 µM
12 | CC(=O)c1ccc(Nc2nc3ccccc3c3occc23)cc1 | inactive: 28.2 µM
13 | O=C(O)CN1CCCC(Cc2c[nH]c3ccccc23)C1 (configuration not stated) | inactive: > 100 µM
14 | C=C(CCC(C)C1CCC2C3=C(C(=O)CC21C)C1(C)CCC(=O)[C@@H](C)C1CC3=O)C(C)C(=O)O (some centres not stated) | inactive: > 100 µM
15 | C=CC[C@@]12CCC(=O)C=C1CCCC2=O | inactive: 91 µM
16 | CCOC(=O)c1cn(-c2ccc([N+](=O)[O-])cc2)c(=S)n2c1nc1ccccc12 | inactive: 58.7 µM
17 | FC(F)(F)P1C2C=CC(CC2)C1(F)F (configuration not stated) | inactive: > 100 µM
18 | CCOC(=O)c1oc2ccc([N+](=O)[O-])c3c2c1CCC3 | inactive: > 100 µM
19 | C/C(=N\NS(=O)(=O)c1ccc(C)cc1)C(CN1CCCCC1)C(c1ccccc1)c1c(O)c2ccccc2oc1=O (configuration not stated) | inactive: > 100 µM
20 | COC1(CC[C@@H](C)COC2OC(CO)C(O)C(O)C2O)OC2C[C@H]3[C@@H]4CC[C@H]5C[C@@H](OC6OC(CO)C(OC7OC(CO)C(O)C(O)C7O)C(O)C6OC6OC(C)C(O)C(O)C6O)[C@H](O)C[C@]5(C)[C@H]4CC[C@]3(C)C2[C@@H]1C (some centres not stated) | inactive: 1.84 µM
21 | Cn1nnc2c3c(N(CCO)CCO)ccnc3ccc21 | inactive: 91 µM
22 | CC(C)(/C=N\O)NO | inactive: > 10 µM

Row | SMILES | GI50
23 | O=C(CC(CC(=O)Oc1c(Br)cc(Br)cc1C(=O)O)C(=O)Oc1c(Br)cc(Br)cc1C(=O)O)Oc1c(Br)cc(Br)cc1C(=O)O | inactive: 33.1 µM
24 | O=c1c(-c2ccc(Cl)cc2)nnc2n(Cc3ccccc3)c3ccccc3n12 | inactive: > 100 µM
25 | CCN(CC)CCC(=O)N1CCc2c([nH]c3ccccc23)C1c1cccnc1 (configuration not stated) | inactive: > 100 µM
26 | COc1ccc(C2CC(c3ccccc3)=Nc3c(-c4ccccc4)nnn32)cc1 (configuration not stated) | inactive: 5.74 µM
27 | COc1cc2c(c(O)c1OC)C(=O)[C@@H]1CCC(=O)N1C2 | inactive: > 100 µM
28 | C=C1CC[C@@H]2[C@](C)(COC(=O)CCC(=O)O)CCC[C@@]2(C)[C@@H]1CCC1=CC(=O)OC1 | inactive: > 100 µM
29 | Cc1ccc(/N=N/C(=N\c2ccc(Cl)cc2)c2ccc(N(CCC#N)CCC#N)cc2)cc1 | inactive: > 100 µM
30 | N[C@H](C(=O)O)[C@@H](Cl)CC(=O)O | inactive: > 100 µM
31 | COc1cc2ccc(C(C)NCC#N)cc2cc1OC (configuration not stated) | inactive: > 100 µM
32 | O=C1NC(=O)/C(=C\c2ccncc2)N1 | inactive: > 100 µM
33 | C=CC(C)(C)n1cc(C2=C(O)C(=O)C(c3cn(C(C)(C)C=C)c4ccccc34)=C(O)C2=O)c2ccccc21 | inactive: 3.48 µM
34 | O=C(/C=C1\Nc2ccccc2C(=O)N1c1ccccc1Cl)c1ccccc1 | inactive: > 100 µM
35 | CCOC(=O)c1cc(-c2ccn(C(C)=O)c2)c(-c2cc(C)co2)[nH]1 | inactive: > 100 µM
36 | O=C(Nc1nc(C23CC4CC(CC(C4)C2)C3)cs1)c1cc2c(ccc3ccccc32)oc1=O | inactive: > 100 µM
37 | CC1N(C)C(=O)OC12CCN(CCCC(=O)c1ccc(F)cc1)CC2 (configuration not stated) | inactive: > 100 µM
38 | CSC1=NC(C(N)=O)C(N)N1C (configuration not stated) | inactive: > 100 µM
39 | CC(=O)O[C@@H]1C[C@@]23C[C@@]24CC[C@H](OC2OCC(O)C(O)C2O)C(C)(C)[C@@H]4CC=C3[C@]2(C)C[C@@H]3OC4(C[C@@H](C)[C@@H]3[C@@]12C)OC(O)[C@@]1(C)O[C@@H]41 (some centres not stated) | inactive: 61.1 µM
40 | CCOC(=O)c1nc2ccccc2nc1Nc1cc(OC)c(OC)c(OC)c1 | inactive: > 100 µM
41 | CCC1(O)CC2CC(=O)OC2C1O (configuration not stated) | inactive: > 100 µM
42 | COC(=O)C12CCC(C(=O)OC)(Cc3c(c4ccccc4n3S(=O)(=O)c3ccccc3)C1)C2=O (configuration not stated) | inactive: > 91.4 µM
43 | CC(=O)CCC#Cc1ccccc1C(=O)C(C)=[N+]=[N-] | inactive: 61.8 µM
44 | Cc1ccc(NC(=O)C(=O)C2NC(=S)NC2=O)c([N+](=O)[O-])c1 (configuration not stated) | inactive: > 100 µM

Row | SMILES | GI50
45 | COc1cc2c(cc1OC)C/C(=N\O)c1cc(OC)c(OC)cc1/C=C\2 | inactive: 7.53 µM
46 | COc1cc2ccc3c4cc(OC)c(OC)cc4c[n+](C)c3c2cc1O | inactive: > 100 µM
47 | COC1=C(N=[N+]=[N-])C(=O)c2ncccc2C1=O | inactive: 17.9 µM
48 | CC1=NN(C(=O)c2ccncc2)C(=O)C1/N=N/c1ccc(F)cc1 (configuration not stated) | inactive: > 100 µM
49 | CCOC(=O)C(=[N+]=[N-])C(=O)C1(C(=O)OCC)CCN(C(=O)c2ccccc2)C1=O (configuration not stated) | inactive: > 100 µM
50 | CC(=O)OC1(C)N=NC2(CCCCC2)O1 (configuration not stated) | inactive: > 100 µM
51 | CC1=NN(c2cccc(Cl)c2)C2(SCC(=O)N2c2nc3ccccc3s2)/C1=C\c1cccs1 (configuration not stated) | inactive: 18.9 µM
52 | Cc1cc(Cc2cc(C)c(NC(=O)C(=O)C3CCC4=C(SC5C=CC=CC5N4)C3=O)c(C(C)C)c2)cc(C(C)C)c1NC(=O)C(=O)C1CCC2=C(SC3C=CC=CC3N2)C1=O (configuration not stated) | inactive: > 100 µM
53 | O=C1NC2(CCCCC2)N=C2C(Cl)CCCC12Cl (configuration not stated) | inactive: > 100 µM
54 | O=C1CSC(c2cccc(Oc3ccccc3)c2)N1c1cccc(Cl)c1Cl (configuration not stated) | inactive: 99.1 µM
55 | N=C(N)NS(=O)(=O)c1ccc(NC(=O)c2ccc3nc4ccccc4c(O)c3c2)cc1 | inactive: > 100 µM
56 | Cc1cc(C)nc(NS(=O)(=O)c2ccc(NC(=O)c3cccc4c(Nc5ccc(S(=O)(=O)N=C(N)N)cc5)c5ccccc5nc34)cc2)n1 | inactive: 28.4 µM
57 | CC1(C)CC[C@]2(C(=O)O)[C@H](O)C[C@]3(C)C(=CC[C@@H]4[C@@]5(C)CC[C@H](OC6OC(C(=O)O)C(O)C(O)C6O)C(C)(C)[C@@H]5CC[C@]43C)[C@@H]2C1 (some centres not stated) | inactive: 50.8 µM
58 | CCOc1nc(N)nc(C)c1/N=N/c1ccc(Cl)cc1 | inactive: > 100 µM
59 | O=C(c1ccccc1)N1C(=O)N(c2ccccc2)C(=N/c2ccccc2)/C1=N\c1ccccc1 | inactive: > 100 µM
60 | Cc1ccc2c(c1)C(=O)C1(C2)Cc2ccc(C)cc2C1=O | inactive: > 100 µM
61 | O=[N+]([O-])c1ccc(-c2csc(=[N+]3CCCCC3)s2)cc1 | inactive: 31.3 µM
62 | CC1C(C#N)(C#N)C(C#N)=C(N)C1(Cl)[N+](=O)[O-] (configuration not stated) | inactive: 15.5 µM
63 | O=C(CC(NC(=O)C(F)(F)F)C(=O)O)OCc1ccccc1 (configuration not stated) | inactive: > 100 µM
64 | C=CCn1c(-c2ccc(-c3cs/c(=N\N=O)n3CC=C)cc2)cs/c1=N\N=O | inactive: > 100 µM
65 | Cc1ccc(CC(=O)Nc2ccc(NC(=O)/C=C/NC(=O)/C=C/c3ccc(-c4ccccc4)cc3)cc2C(=O)c2ccccc2)cc1 | inactive: 3.47 µM
66 | COc1ccc(/N=N/C(=N\c2ccccc2)c2ccc(N(CCC#N)CCC#N)cc2)cc1 | inactive: > 100 µM

Row | SMILES | GI50
67 | CC(CCc1ccccc1)NCC(O)n1c(/N=N/N(C)C)nc2c1c(=O)n(C)c(=O)n2C (configuration not stated) | inactive: > 100 µM
68 | Cc1ccc(C)c(NC(=O)CC/C(=N\NC(=O)C(N)=O)C(C)C(=O)c2ccc(O)cc2)c1 (configuration not stated) | inactive: > 100 µM
69 | COc1ccc(C(=O)N2CCN(c3ccc4[nH]c(=O)oc4c3)CC2)cc1 | inactive: > 100 µM
70 | N#CCCC1(CCC#N)CCCCCCCCC(CCC#N)(CCC#N)C(O)C1O (configuration not stated) | inactive: > 100 µM
71 | CN(C)CCNC(=O)c1cnn(C)c1[N+](=O)[O-] | inactive: > 100 µM
72 | CCc1ccccc1NC(=O)C(=O)C(C#N)c1c(Cl)cccc1Cl (configuration not stated) | inactive: > 100 µM
73 | COc1ccc(/C=C2\CCC(CN(C)C)C2=O)cc1OC (configuration not stated) | inactive: 17.7 µM
74 | CSC(=N/N=C(\C)c1ccc(S(=O)(=O)N(C)c2ccccc2)cc1)SC | inactive: > 67.9 µM
75 | O=C(CCC1CCCCC1)NCc1ccc(C(=O)O)cc1 | inactive: > 100 µM
76 | COc1ccc(-c2cc(=O)c3ccccc3[nH]2)c(OC)c1 | inactive: > 100 µM
77 | CC(C)(C)OC(=O)CC(NC(=O)OC(C)(C)C)C(=O)N[C@@H]1CCCC[C@H]1C(=O)OCc1ccccc1 (some centres not stated) | inactive: 60.8 µM
78 | CC(C)NC(=O)OCc1c(COC(=O)NC(C)C)c(-c2ccc[n+](COC(=O)C(C)C)c2)n2c1CCC2 | inactive: 97.9 µM
79 | CCCCCCCCCCCCCCCCP(=O)(O)OP(=O)(O)OCC1OC(n2cnc3c(N)ncnc32)C(O)C1O (configuration not stated) | inactive: 52.6 µM
80 | COC(=O)[C@]12CCC(C)[C@H](C)[C@H]1C1=CCC3[C@@]4(C)CC[C@H](OC(C)=O)C(C)(C)C4CC[C@@]3(C)C1(C)C(O)C2 (some centres not stated) | inactive: > 100 µM
81 | COC1=C2C[C@H](O)C(C)C[C@@]2(OC)OC1=O (some centres not stated) | inactive: > 100 µM
82 | OCC1O[C@H](O[C@@H]2CCCN3CC(O)C(O)[C@@H]23)C(O)C(O)C1O (some centres not stated) | inactive: > 100 µM
83 | COc1cc(/C=N/c2ccc(S(N)(=O)=O)cc2)cc(OC)c1 | inactive: > 50 µM
84 | O=c1cc(-c2ccccc2F)[nH]c2cc3c(cc12)OCO3 | active: 0.3 µM
85 | Cc1cc[n+]2c(c1)-c1cc(C)cc[n+]1CC2 | inactive: > 100 µM
86 | CCN(CC)/[N+]([O-])=N/O | inactive: > 100 µM
87 | COc1ccccc1-c1cc(O)c2c(C)cc(C)nc2n1 | inactive: 66.5 µM
